The supplement of paper PMC11369174, “Proteome-scale characterisation of motif-based interactome rewiring by disease mutations” (Molecular Systems Biology, 2024)
Some of the results follow. These are enrichments in a pooled selection; single values are uncertain.

Columns and labels:
Experiment in all cases: mean normalised NGS count of phage-displayed peptide after selection on bait (% of reads); baits are purified protein domains named by gene / domain / UniProt id / residues; peptides come from disordered regions of human proteins; higher = stronger enrichment / binding
[1] = biological target: MAP1LC3B_ATG8__Q9GZQ8_2_119
[2] = biological target: MDM2_p53-binding-domain__Q00987_17_125
[3] = biological target: MK08_Pkinase__P45983_1_363
Chain of MK08_Pkinase__P45983_1_363 (chain, as listed by the source): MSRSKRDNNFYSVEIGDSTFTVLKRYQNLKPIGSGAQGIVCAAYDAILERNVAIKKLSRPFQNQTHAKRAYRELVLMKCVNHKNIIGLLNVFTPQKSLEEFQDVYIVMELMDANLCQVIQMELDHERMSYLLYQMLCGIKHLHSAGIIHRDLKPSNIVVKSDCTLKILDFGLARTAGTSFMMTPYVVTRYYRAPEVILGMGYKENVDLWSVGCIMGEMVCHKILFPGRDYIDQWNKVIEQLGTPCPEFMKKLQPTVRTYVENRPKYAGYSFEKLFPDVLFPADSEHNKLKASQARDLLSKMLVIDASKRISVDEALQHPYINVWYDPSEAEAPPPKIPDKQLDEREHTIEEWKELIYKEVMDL

MSN_FERM_1_P26038_1_322 = biological target: T1, MSN_FERM_1_P26038_1_322
T1 chain: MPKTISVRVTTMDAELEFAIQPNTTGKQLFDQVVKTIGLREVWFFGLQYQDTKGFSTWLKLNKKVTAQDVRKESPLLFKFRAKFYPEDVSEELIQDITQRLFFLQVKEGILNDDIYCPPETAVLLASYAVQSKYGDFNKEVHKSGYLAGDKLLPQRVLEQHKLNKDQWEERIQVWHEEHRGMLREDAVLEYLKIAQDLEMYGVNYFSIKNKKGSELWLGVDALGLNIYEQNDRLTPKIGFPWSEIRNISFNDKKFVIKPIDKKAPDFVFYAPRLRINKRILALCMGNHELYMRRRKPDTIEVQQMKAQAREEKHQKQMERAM

RDX_FERM_1_P35241_5_295 = biological target: T2, RDX_FERM_1_P35241_5_295
T2 chain: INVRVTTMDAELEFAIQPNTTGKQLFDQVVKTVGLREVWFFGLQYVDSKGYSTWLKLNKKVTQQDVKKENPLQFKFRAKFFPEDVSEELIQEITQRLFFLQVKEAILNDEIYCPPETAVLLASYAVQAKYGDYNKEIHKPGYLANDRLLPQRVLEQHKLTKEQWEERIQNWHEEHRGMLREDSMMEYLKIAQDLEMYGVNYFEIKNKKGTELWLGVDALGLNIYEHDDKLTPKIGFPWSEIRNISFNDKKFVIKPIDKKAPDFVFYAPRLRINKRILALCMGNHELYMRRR

[4] = replicate selections in which the peptide was seen: 2
[5] = replicate selections in which the peptide was seen: 3
[6] = replicate selections in which the peptide was seen: 4
[7] = replicate selections in which the peptide was seen: 5
[8] = replicate selections in which the peptide was seen: 6

Binder: YEHLTLSDKEVQMHFA [CENPF 1390-1405 wt]
- mean normalised NGS count [1, 4]: 0.00502

Binder: TEHSTVGLAQQWVQLD [SPTAN1 2283-2298 mut Q13813.D2295V]
- mean normalised NGS count [1, 4]: 0.0056

Binder: NEDGFSPNNDDMFVDL [MED13L 2014-2029 wt]
- mean normalised NGS count [1, 4]: 0.0309

Binder: EYTILEGKLQKTLIDL [CEP120 704-719 wt]
- mean normalised NGS count [1, 4]: 0.0539

Binder: LRSLATHTLHALTPLL [FUZ 403-418 wt]
- mean normalised NGS count [1, 4]: 1.18

Binder: DPLAGTVFVDFGFQLL [ABCB4 1087-1102 wt]
- mean normalised NGS count [1, 5]: 0.0146

Binder: VLEDEVYEILRDTSEE [BRCA2 290-305 mut P51587.T298_V300delinsILR]
- mean normalised NGS count [1, 5]: 0.0111

Binder: MESDNASGGDDDWTHL [SQSTM1 326-341 wt]
- mean normalised NGS count [1, 5]: 0.0111

Binder: WTHLSSKEVDPSTGEL [SQSTM1 338-353 wt]
- mean normalised NGS count [1, 5]: 0.0724

Binder: DDTWDNVYYYDEEGGG [CDH1 746-761 mut P12830.R749W]
- mean normalised NGS count [1, 6]: 0.0142

Binder: YSERHGWGYLVPGWRD [POLG 614-629 mut P54098.R627W]
- mean normalised NGS count [1, 6]: 0.058

Binder: KWVDLSSQVGQHLQLH [MYBPC3 195-210 mut Q14896.K202Q]
- mean normalised NGS count [1, 6]: 0.047

Binder: NPRDTEDVPWITLNSS [BRCA1 363-378 wt]
- mean normalised NGS count [1, 7]: 0.0247

Binder: LTPSQKAEITELFTIL [BRCA2 1103-1118 mut P51587.S1115F]
- mean normalised NGS count [1, 7]: 0.614

Binder: TAIGDKNRWAVLALEH [PTCH1 1106-1121 mut Q13635.R1114W]
- mean normalised NGS count [1, 7]: 0.0295

Binder: ELADDNGYHWDTSDWM [FAT1 4374-4389 mut Q14517.S4375L]
- mean normalised NGS count [1, 7]: 0.0754

Binder: DAGDYEQLFSSTQEEI [SLX4 979-994 mut Q8IY92.G992E]
- mean normalised NGS count [1, 7]: 1.5

Binder: NTHLLPLRATDFEVLS [ZNF469 3007-3022 wt]
- mean normalised NGS count [1, 7]: 0.0228

Binder: LPLHATDFEVLSTKFE [ZNF469 3011-3026 mut Q96JG9.R3014H]
- mean normalised NGS count [1, 7]: 0.0702

Binder: VANWTDLENSIVSVER [ABCC6 1220-1235 mut O95255.R1221C]
- mean normalised NGS count [1, 8]: 0.413

Binder: WTDLENSIVSVEWMQD [ABCC6 1223-1238 mut O95255.R1235W]
- mean normalised NGS count [1, 8]: 2.02

Binder: APLDESNSYEHLTLSD [CENPF 1382-1397 wt]
- mean normalised NGS count [1, 8]: 0.743

Binder: SMPNVLEDEVYEILRD [BRCA2 286-301 mut P51587.T298_V300delinsILR]
- mean normalised NGS count [1, 8]: 2.1

Binder: EVYEILRDTSEEDSFS [BRCA2 294-309 mut P51587.T298_V300delinsILR]
- mean normalised NGS count [1, 8]: 0.0836

Binder: LHSDDAGDYEQLFSST [SLX4 975-990 mut Q8IY92.P975L]
- mean normalised NGS count [1, 8]: 0.257

Binder: PHSDDAGDYEQLFSST [SLX4 975-990 wt]
- mean normalised NGS count [1, 8]: 0.0782

Binder: DAGDYEQLFSSTQGEI [SLX4 979-994 wt]
- mean normalised NGS count [1, 8]: 0.151

Binder: NTHLLPLHATDFEVLS [ZNF469 3007-3022 mut Q96JG9.R3014H]
- mean normalised NGS count [1, 8]: 0.751

Binder: NTHLLPLRAMDFEVLS [ZNF469 3007-3022 mut Q96JG9.T3016M]
- mean normalised NGS count [1, 8]: 0.0594

Binder: ATDFEVLSTKFEMQDL [ZNF469 3015-3030 wt]
- mean normalised NGS count [1, 8]: 0.97

Binder: AQAAAVAGNIPGPGSV [SMAD4 460-475 wt]
- mean normalised NGS count [2, 4]: 1.74

Binder: DMTKQKEFFDVWPVLM [PDE6A 281-296 wt]
- mean normalised NGS count [2, 7]: 0.0284

Binder: DMTKQKEFFDVWLVLM [PDE6A 281-296 mut P16499.P293L]
- mean normalised NGS count [2, 8]: 17.4

Binder: LVSKLDWLEASSGILE [RYR1 546-561 mut P21817.R552W]
- mean normalised NGS count [3, 4]: 0.00818

Binder: AYEPQLNRLKEKAQQL [SYNE1 3225-3240 wt]
- mean normalised NGS count [3, 4]: 0.924

Binder: SILAELEELNQTEQTT [CBS 285-300 mut P35520.P290L]
- mean normalised NGS count [3, 5]: 0.269

Binder: ELSQKKQNLWLELRNY [BBS2 340-355 mut Q9BXC9.L349W]
- mean normalised NGS count [3, 5]: 0.141

Binder: GGEEVGPLELEIKRLS [CCDC40 745-760 wt]
- mean normalised NGS count [3, 8]: 49.6

Binder: YQVADIPQPQGSIINP [IRF6 111-126 wt]
- mean normalised NGS count (MSN_FERM_1_P26038_1_322; [4]): 0.0446
- mean normalised NGS count (RDX_FERM_1_P35241_5_295; [5]): 0.23

Binder: YEVSSSLGYTSTRDVL [DEPDC5 543-558 wt]
- mean normalised NGS count (MSN_FERM_1_P26038_1_322; [4]): 0.00475

Binder: YYLVHTGEKPHEAQVA [PRDM1 621-636 mut O75626.H621Y]
- mean normalised NGS count (MSN_FERM_1_P26038_1_322; [4]): 0.368
- mean normalised NGS count (RDX_FERM_1_P35241_5_295; [6]): 0.362

Binder: YWFPPPSQYNVSEIPL [ARSB 449-464 mut P15848.S464L]
- mean normalised NGS count (MSN_FERM_1_P26038_1_322; [4]): 0.00581
- mean normalised NGS count (RDX_FERM_1_P35241_5_295; [5]): 1.91

Binder: YWFPPPSQYNVSEIPS [ARSB 449-464 wt]
- mean normalised NGS count (MSN_FERM_1_P26038_1_322; [4]): 0.0304
- mean normalised NGS count (RDX_FERM_1_P35241_5_295; [5]): 0.317

Binder: DFSPYLISDNSEQPMG [BRCA1 1123-1138 mut P38398.L1133S]
- mean normalised NGS count (MSN_FERM_1_P26038_1_322; [4]): 0.00468

Binder: KYHLSEKQDTYLSNSS [BRCA2 1729-1744 mut P51587.N1730Y]
- mean normalised NGS count (MSN_FERM_1_P26038_1_322; [4]): 0.734
- mean normalised NGS count (RDX_FERM_1_P35241_5_295; [5]): 0.0567

Binder: QLDISEPYKVYRIVPE [IRF8 100-115 wt]
- mean normalised NGS count (MSN_FERM_1_P26038_1_322; [4]): 0.068

Binder: WYPTNMEELVTVDEVG [RBM20 900-915 wt]
- mean normalised NGS count (MSN_FERM_1_P26038_1_322; [4]): 0.235

Binder: MYDIISSTSKDSTKLT [NIPBL 344-359 mut Q6KC79.P351T]
- mean normalised NGS count (MSN_FERM_1_P26038_1_322; [4]): 0.0199
- mean normalised NGS count (RDX_FERM_1_P35241_5_295; [5]): 0.0145

Binder: SAVLSWDVPENDGGAP [TTN 27220-27235 wt]
- mean normalised NGS count (MSN_FERM_1_P26038_1_322; [4]): 0.00202

Binder: YTYNVSNLDVRQLSAP [KMT2D 4894-4909 wt]
- mean normalised NGS count (MSN_FERM_1_P26038_1_322; [5]): 0.425
- mean normalised NGS count (RDX_FERM_1_P35241_5_295; [4]): 0.0121

Binder: YFVSHDQMMQDISNNE [CASK 789-804 wt]
- mean normalised NGS count (MSN_FERM_1_P26038_1_322; [5]): 0.0424

Binder: TYALYLPETLPEDGGE [NEXN 636-651 mut Q0ZGT2.F645L]
- mean normalised NGS count (MSN_FERM_1_P26038_1_322; [5]): 0.00553

Binder: ESVLQNTSPEGIPTIQ [SYNE1 3345-3360 wt]
- mean normalised NGS count (MSN_FERM_1_P26038_1_322; [5]): 0.0118

Binder: SYEFVSPSPPADVSER [BARD1 179-194 wt]
- mean normalised NGS count (MSN_FERM_1_P26038_1_322; [5]): 18.9
- mean normalised NGS count (RDX_FERM_1_P35241_5_295; [7]): 9.21

Binder: YYDFSKGIDHKKSDDG [UBIAD1 104-119 mut Q9Y5Z9.R119G]
- mean normalised NGS count (MSN_FERM_1_P26038_1_322; [5]): 0.0109
- mean normalised NGS count (RDX_FERM_1_P35241_5_295; [5]): 0.039
